From PubChem BioAssay AID1671193 (National Center for Advancing Translational Sciences (NCATS), 2021)
“And” between values parts separate entries of the source, which are not always exact repeats. Equal values may be shown once. The campaign covered roughly 150,000 compounds. About 180 (0.12%) were called active. The shares of active, inactive and inconclusive entries below differ from those in the screen. The call rests on the fitted dose curve; in most records, active means well fitted cell-killing curve with a large enough effect; inconclusive means small, poorly fitted or top-dose-only effect, or effect the other way; inactive means flat fitted curve, though single readings scatter. Potencies of inconclusive entries are doubtful fits and often do not repeat.

assay: GF-AFC viability counterscreen for inhibitors of alpha-synuclein gene (SNCA) expression; conditions: HEK-293-SNCA-luc viability, GF-AFC fluorescence, 24 h; series mostly up to 57.1 µM; further: nearly all actives have a fitted effect of over 30% in size
Method in brief: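 HEK-293-SNCA-luc cells (1500/well) plated 24 h, then exposed 24 h to a dilution series; GF-AFC added 30 min at 37C, fluorescence 405/540 nm; normalised to medium-only and DMSO wells, Hill fit.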
Potency means the concentration at half of the fitted maximal effect; tags describe the fitted curve by direction and shape.

Row | SMILES | Potency
1 | Fc1ccc(-c2nnc3ccc(Nc4ccc(N5CCOCC5)cc4)nn23)nc1 | inconclusive: 31.6 µM [cytotoxic, partial curve]
2 | COc1ccc(CN2C(=O)C(NC(=O)c3ccccc3C)(C(F)(F)F)N=C2c2ccccc2)cc1 (stereo not given) | inconclusive: 31.6 µM [cytotoxic, partial curve, poor fit]
3 | COc1ccc(-c2ccnc(N[C@H]3CO[C@H]4[C@@H]3OC[C@@H]4NS(=O)(=O)c3ccc(C)cc3)n2)cc1 | inactive
4 | CC(C)C(=O)N1CCN(c2nccc(Nc3ccccc3Cl)n2)CC1 | inactive
5 | CC(=O)N1CCN(c2cc(-c3noc([C@@H]4CCCN4Cc4ccccc4)n3)ccn2)CC1 | inconclusive: 35.5 µM [cytotoxic, single point]
6 | CCNC(=O)N[C@@H]1C=C[C@@H](c2c(C)nn(-c3ccc(C(C)C)cc3)c2C)C1 | inconclusive: 20 µM [cytotoxic, partial curve, poor fit]
7 | COc1ccc(-c2noc([C@@H]3Cc4nc[nH]c4CN3C(=O)Nc3ccccc3)n2)cc1 | inconclusive: 3.98 µM [cytotoxic, full curve, poor fit]
8 | Cc1ccccc1NC(=O)c1ccc2c(c1)OCCN(CCC(F)(F)F)C2 | inactive
9 | Cc1ccc(NS(=O)(=O)c2cc(-c3cc(C)no3)ccc2C)c(Cl)c1 | inconclusive: 35.5 µM [cytotoxic, partial curve, poor fit]
10 | CCOc1ccccc1C1NC(=O)N(CC(=O)Nc2cccc(Cl)c2)C2=C1C(=O)OC2 (stereo not given) | inactive
11 | Cc1cccc(NC(=O)c2oc3ccccc3c2NC(=O)c2cc(=O)c3ccc(C)cc3o2)c1 | inconclusive: 22.4 µM [rising, single point]
12 | O=C(Nc1ccc(O)c(-c2nc3ccccc3o2)c1)c1ccc(Br)cc1 | inconclusive: 39.8 µM [cytotoxic, single point]
13 | C[C@H]1CCCN1C(=O)c1nnc(COc2ccc(Cl)cc2)n1-c1ccccc1 | inconclusive: 25.1 µM [cytotoxic, partial curve, poor fit]
14 | COc1ccc(CN2CCC3(Cc4ccccc4NC3=O)C2)cc1 (stereo not given) | inactive
15 | Cc1ccc(CNC(=O)C2CCN(C(=O)c3ncn4c3COC(c3ccc(Cl)cc3)C4)CC2)cc1 (stereo not given) | inactive
16 | CN(Cc1ccc(-c2ccccc2)cc1)C(=O)Nc1ccc(Cl)cc1 | inactive
17 | CN(C)CC1(O)CCC2(CCN(C(=O)CCc3ccccc3)CC2)CC1 | inconclusive: 2 µM [rising, partial curve, poor fit]
18 | COc1cccc(CN2CCOC3(CCN([S+](=O)([O-])c4ccccc4)CC3)C2=O)c1 | inconclusive: 22.4 µM [cytotoxic, partial curve, poor fit]
19 | CCOC(=O)[C@H](CCc1ccccc1)N[C@@H](C)C(=O)N1CCC[C@H]1C(=O)O | inactive
20 | O=C(CCn1c(=O)c2sccc2n(CC(=O)Nc2ccccc2)c1=O)NCc1ccccc1Cl | inconclusive: 10 µM [cytotoxic, partial curve, poor fit]

Row | SMILES | Potency
21 | Cc1ccc(C(=O)Nc2ccc3c(N4CCCCC4)ncnc3c2)cc1F | inactive
22 | C1CCC[C@H]2CCCN3CC[C@@H](CCCCCC[C@@H]4CCCN5CC[C@@H](CC1)O[C@@H]45)O[C@@H]23 | inconclusive: 0.0201 µM [cytotoxic, partial curve, poor fit]
23 | COCCN(C)C[C@@H]1CN(C(=O)c2c(-c3ccccc3)ccnc2C)C[C@@H]1CO | inactive
24 | COC(=O)C1=C(C)N=C2SC=C(CC(=O)N(C)Cc3ccco3)N2C1c1cccc(Cl)c1 (stereo not given) | inactive
25 | COc1ccc(C(CC(=O)NCc2ccc(Cl)cc2)N2Cc3ccccc3C2=O)cc1OC (stereo not given) | inconclusive: 44.7 µM [cytotoxic, partial curve, poor fit]
26 | Cc1ccc(S(=O)(=O)N2CCCCCC2c2nnc(C)o2)c(C)c1 (stereo not given) | inconclusive: 39.8 µM [cytotoxic, single point]
27 | COc1cccc([S+](=O)([O-])N2CC(Oc3ccc(F)c(C)c3)C2)c1 | inactive
28 | COc1ccc(-c2nc3cc(C)ccn3c2NC(=O)c2cccc(F)c2)cc1 | inconclusive: 10 µM [cytotoxic, partial curve, poor fit]
29 | O=C(NCc1ccco1)C1c2ccccc2C(=O)N(C2CCCCC2)C12CCCCC2 (stereo not given) | inconclusive: 2.51 µM [cytotoxic, full curve, poor fit]
30 | CNC(=O)[C@H](Cc1ccccc1)NC(=O)[C@H](CC(C)C)[C@H](CSc1cccs1)C(=O)NO | inconclusive: 0.0192 µM [cytotoxic, full curve, poor fit]
31 | Cc1cccc(NC(=O)Cn2c(-c3cccc(Cl)c3)nc(C)c(CCO)c2=O)c1C | inconclusive: 10 µM [cytotoxic, partial curve, poor fit]
32 | COc1ccc(C(=O)NC2CCN(c3cc(C(F)(F)F)ncn3)CC2)cc1 | inconclusive: 0.708 µM [cytotoxic, full curve, poor fit]
33 | CCOc1ccc(CCNC(=O)CCCc2nnc3n(CC)c(=O)c4sccc4n23)cc1 | inconclusive: 7.94 µM [rising, single point]
34 | COc1cccc(CNC(=O)CN2C(=O)N(c3ccc(C)cc3C)S(=O)(=O)c3ccccc32)c1OC | inconclusive: 14.1 µM [cytotoxic, single point]
35 | O=C(O)c1ccc2nc(-c3cc4cc(Cl)ccc4oc3=O)[nH]c2c1 | inconclusive: 25.1 µM [rising, single point]
36 | O=C(NC1CCN(c2cnn(CC3CC3)c(=O)c2)CC1)c1ccc2c(c1)OCO2 | inconclusive: 4.47 µM [cytotoxic, single point]
37 | Cc1ccc(-c2ccccc2CN2CCN([S+](=O)([O-])c3cccs3)CC2)cc1Cl | inconclusive: 6.31 µM [cytotoxic, single point]
38 | COc1ccc(C(=O)NCC(c2ccc(Cl)cc2)N2CCCCC2)cc1 (stereo not given) | inconclusive: 11.2 µM [cytotoxic, partial curve, poor fit]
39 | CCC(Sc1nnc2c3ccccc3n(CC)c2n1)C(=O)Nc1ccc(NC(C)=O)cc1 (stereo not given) | inconclusive: 10 µM [cytotoxic, partial curve, poor fit]
40 | COc1cccc(C2C(C(=O)Nc3ccccc3OC)=C(C)Nc3nc(-c4ccco4)nn32)c1 (stereo not given) | inconclusive: 7.94 µM [cytotoxic, partial curve, poor fit]

Row | SMILES | Potency
41 | CNC(=O)[C@@H]1CN(C(=O)c2ccc(C)[nH]c2=O)C[C@H]1c1nc(COC)no1 | inconclusive: 0.631 µM [cytotoxic, partial curve, poor fit]
42 | COc1cc(F)ccc1-c1nccc2c(=O)cc(-c3cccnc3)oc12 | inconclusive: 20 µM [cytotoxic, partial curve, poor fit]
43 | O=C(Cc1cccnc1)N1CCCCCCn2c(nnc2-c2ccc(F)cc2)CC1 | inactive
44 | O=C1COc2ccc(-c3ccsc3)nc2CN1Cc1ccc(C(F)(F)F)cc1 | inactive
45 | Cc1csc(Nc2ccc3ncn(Cc4ccccc4)c(=O)c3n2)n1 | inconclusive: 31.6 µM [cytotoxic, partial curve, poor fit]
46 | COc1ccc(-c2cc3ccc(O)c(CN4CCCC(C)C4)c3oc2=O)cc1OC (stereo not given) | inconclusive: 2 µM [rising, full curve, poor fit]
47 | O=C(NCc1cccc(Cl)c1)c1ccc(NC(=O)N2CCSc3ccccc32)cc1 | inconclusive: 7.94 µM [cytotoxic, single point]
48 | CN(c1ccccc1)c1cc(=O)c2ccnc(-c3ccncc3)c2o1 | inactive
49 | COc1ccc(C(=O)N2CCCN(c3cc(-c4ccc(Br)cc4)[nH]n3)CC2)cc1F | inconclusive: 22.4 µM [cytotoxic, partial curve, poor fit]
50 | CC(C)C(=O)N1CC(=O)N(C2CCCCC2)CC(OCc2ccccc2)C1 (stereo not given) | inactive
51 | CCOCCCn1c(=N)c(C(=O)NC2CCCCC2)cc2c(=O)n3ccccc3nc21 | inconclusive: 1.26 µM [rising, full curve, poor fit]
52 | Cc1cnc(CCNC(=O)C2CC=CC2)n1C1CC1 | inconclusive: 31.6 µM [cytotoxic, single point]
53 | COc1ccc(NC(=O)c2cc3n(n2)CC(c2ccc(Br)cc2)OC3)cc1OC (stereo not given) | inconclusive: 39.8 µM [cytotoxic, single point]
54 | O=C1CCN(S(=O)(=O)c2ccccc2)CCCN(C(=O)Cc2cccc(F)c2)CCN1 | inconclusive: 10 µM [cytotoxic, partial curve, poor fit]
55 | CCCCN(C)C(=O)CSc1c2c(nc3ccc(Cl)cc13)CCCC2 | inconclusive: 39.8 µM [cytotoxic, single point]
56 | CC1(O)CC(c2nc(-c3ccc4ccc(-c5ccccc5)nc4c3)c3c(N)nccn23)C1 (stereo not given) | inconclusive: 121 nM [cytotoxic, full curve, poor fit] and inconclusive: 10.6 µM [cytotoxic, partial curve, poor fit]
57 | O=C(c1ccc(Cl)cc1)N1CCCC(n2cc(-c3nc(-c4ccccc4)no3)nn2)C1 (stereo not given) | inconclusive: 31.6 µM [cytotoxic, partial curve, poor fit]
58 | O=C(Nc1ccn(Cc2c(F)cccc2C(F)(F)F)n1)c1c(F)cccc1F | inconclusive: 1.6 µM [rising, partial curve, poor fit]
59 | O=C1NC2(CCN([S+](=O)([O-])c3ccccc3)C2)COc2ccccc21 (stereo not given) | inactive
60 | CCOC(=O)c1ccc(N2C(=O)c3[nH]nc(-c4ccc(OC)cc4)c3C2c2cccc(O)c2)cc1 (stereo not given) | inconclusive: 15.8 µM [cytotoxic, partial curve, poor fit]
